Measured values from paper PMC9326217.
Results are given in words; binding and its absence hold for the method and conditions named. In cells and extracts the contact can be indirect. Some binding calls cover weakened binding; strength is not graded here.

Sequences of proteins named here, by UniProt entry; tags and fusion partners are left off. A change or cut given only in a name is not applied to a line headed by its entry.
UniProt Q9Z340: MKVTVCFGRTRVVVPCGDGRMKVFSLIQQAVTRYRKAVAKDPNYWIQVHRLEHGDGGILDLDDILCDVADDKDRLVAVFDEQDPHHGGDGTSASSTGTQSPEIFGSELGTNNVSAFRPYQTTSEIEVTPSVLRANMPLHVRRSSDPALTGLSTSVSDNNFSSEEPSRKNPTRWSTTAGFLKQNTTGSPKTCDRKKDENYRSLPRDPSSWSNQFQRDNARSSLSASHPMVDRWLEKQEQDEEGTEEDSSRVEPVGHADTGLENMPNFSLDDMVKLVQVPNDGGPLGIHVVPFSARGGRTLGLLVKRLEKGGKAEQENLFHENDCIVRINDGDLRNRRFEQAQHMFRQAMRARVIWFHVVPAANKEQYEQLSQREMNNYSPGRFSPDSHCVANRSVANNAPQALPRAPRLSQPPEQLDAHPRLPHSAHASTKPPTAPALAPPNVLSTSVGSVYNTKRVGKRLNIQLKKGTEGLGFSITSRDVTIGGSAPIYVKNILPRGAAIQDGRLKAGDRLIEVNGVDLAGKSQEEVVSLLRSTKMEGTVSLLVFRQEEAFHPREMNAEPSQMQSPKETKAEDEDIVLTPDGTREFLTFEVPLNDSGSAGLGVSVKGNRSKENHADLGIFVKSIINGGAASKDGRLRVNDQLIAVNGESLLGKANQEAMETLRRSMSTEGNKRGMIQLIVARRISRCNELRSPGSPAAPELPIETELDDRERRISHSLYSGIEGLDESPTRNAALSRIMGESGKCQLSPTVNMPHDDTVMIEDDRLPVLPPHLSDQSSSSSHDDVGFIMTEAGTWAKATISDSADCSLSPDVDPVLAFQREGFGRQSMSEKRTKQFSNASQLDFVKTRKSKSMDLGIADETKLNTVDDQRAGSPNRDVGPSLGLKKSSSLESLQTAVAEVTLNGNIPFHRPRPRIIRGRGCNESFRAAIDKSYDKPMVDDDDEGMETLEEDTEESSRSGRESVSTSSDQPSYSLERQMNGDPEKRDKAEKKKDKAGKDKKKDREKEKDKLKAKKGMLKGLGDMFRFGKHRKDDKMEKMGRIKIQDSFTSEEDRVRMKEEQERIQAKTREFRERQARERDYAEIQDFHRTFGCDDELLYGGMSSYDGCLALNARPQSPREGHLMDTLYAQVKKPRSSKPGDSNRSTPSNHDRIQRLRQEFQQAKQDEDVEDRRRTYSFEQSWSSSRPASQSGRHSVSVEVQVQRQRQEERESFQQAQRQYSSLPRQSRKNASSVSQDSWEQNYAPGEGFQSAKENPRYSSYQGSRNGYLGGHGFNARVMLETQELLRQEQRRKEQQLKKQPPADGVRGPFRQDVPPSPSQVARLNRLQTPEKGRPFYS
UniProt P67775: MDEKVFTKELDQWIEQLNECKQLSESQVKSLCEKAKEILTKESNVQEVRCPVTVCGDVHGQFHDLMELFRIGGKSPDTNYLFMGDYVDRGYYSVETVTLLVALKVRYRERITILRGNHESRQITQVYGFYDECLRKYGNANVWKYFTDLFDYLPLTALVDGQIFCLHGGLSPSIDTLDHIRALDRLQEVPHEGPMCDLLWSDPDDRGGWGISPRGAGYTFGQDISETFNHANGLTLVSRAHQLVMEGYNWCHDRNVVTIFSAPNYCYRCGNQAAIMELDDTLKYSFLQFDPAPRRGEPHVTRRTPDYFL
UniProt O97758: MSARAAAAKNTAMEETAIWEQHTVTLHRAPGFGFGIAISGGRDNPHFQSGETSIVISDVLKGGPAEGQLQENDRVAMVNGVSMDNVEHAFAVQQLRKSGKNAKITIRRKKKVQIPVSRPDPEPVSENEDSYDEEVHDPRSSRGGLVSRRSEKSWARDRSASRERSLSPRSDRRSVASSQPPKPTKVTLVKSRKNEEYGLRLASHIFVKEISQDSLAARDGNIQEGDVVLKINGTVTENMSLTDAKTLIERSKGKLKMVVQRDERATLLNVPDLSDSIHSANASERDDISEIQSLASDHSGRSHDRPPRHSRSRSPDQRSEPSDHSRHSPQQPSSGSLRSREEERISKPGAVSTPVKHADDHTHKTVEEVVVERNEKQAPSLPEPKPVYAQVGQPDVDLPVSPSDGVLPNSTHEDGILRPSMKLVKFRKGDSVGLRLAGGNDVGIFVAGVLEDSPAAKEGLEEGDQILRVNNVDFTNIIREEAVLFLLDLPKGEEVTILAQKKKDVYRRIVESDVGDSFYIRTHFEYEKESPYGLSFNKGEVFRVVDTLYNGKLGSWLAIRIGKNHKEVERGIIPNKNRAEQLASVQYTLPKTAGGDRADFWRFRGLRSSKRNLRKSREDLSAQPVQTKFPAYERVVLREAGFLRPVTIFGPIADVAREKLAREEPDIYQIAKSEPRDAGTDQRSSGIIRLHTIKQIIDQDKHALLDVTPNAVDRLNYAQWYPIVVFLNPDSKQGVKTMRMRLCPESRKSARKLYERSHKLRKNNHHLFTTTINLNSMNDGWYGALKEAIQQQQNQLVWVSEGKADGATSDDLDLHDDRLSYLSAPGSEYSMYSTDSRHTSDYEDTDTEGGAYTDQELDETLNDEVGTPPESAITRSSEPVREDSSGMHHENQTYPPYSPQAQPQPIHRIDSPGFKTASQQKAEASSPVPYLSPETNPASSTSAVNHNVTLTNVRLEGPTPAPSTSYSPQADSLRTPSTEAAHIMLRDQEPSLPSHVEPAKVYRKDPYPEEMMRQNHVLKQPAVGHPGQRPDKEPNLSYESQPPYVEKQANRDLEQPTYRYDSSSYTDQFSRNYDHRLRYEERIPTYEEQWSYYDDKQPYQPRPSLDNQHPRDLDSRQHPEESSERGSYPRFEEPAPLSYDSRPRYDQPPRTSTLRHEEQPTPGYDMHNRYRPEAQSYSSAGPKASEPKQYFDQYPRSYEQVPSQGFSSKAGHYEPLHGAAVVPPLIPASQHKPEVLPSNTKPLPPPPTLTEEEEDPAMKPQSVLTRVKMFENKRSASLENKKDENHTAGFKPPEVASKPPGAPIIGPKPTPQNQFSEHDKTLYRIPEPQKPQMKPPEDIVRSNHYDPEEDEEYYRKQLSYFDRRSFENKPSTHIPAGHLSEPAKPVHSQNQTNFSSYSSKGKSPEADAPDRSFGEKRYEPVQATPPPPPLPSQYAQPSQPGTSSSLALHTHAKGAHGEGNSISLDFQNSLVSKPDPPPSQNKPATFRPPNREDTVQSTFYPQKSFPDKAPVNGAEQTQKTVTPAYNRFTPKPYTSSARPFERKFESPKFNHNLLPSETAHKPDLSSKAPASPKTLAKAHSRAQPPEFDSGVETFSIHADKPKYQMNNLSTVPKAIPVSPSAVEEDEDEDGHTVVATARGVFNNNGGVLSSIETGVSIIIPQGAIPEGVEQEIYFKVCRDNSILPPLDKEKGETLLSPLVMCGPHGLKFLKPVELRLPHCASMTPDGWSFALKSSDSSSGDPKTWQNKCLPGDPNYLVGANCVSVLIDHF

Columns and labels:
[1] = target: myc-tagged Par3 (Par3^WT) (UniProt Q9Z340); experiment: co-IP; total lysates (buffer 2) of MDCK cells stably expressing myc-Par3 and transfected with WTC, L309Δ or empty vector, immunoprecipitated overnight at 4°C with anti-myc antibody coupled magnetic beads; Western blot for HA-PP2Ac
[2] = target: HA-tagged PP2Ac (protein phosphatase 2A catalytic C subunit, wild type) (UniProt P67775); experiment: co-IP; total MDCK cell lysates in buffer 2 (10 mM Tris pH 7.4, 150 mM NaCl, 1% NP-40, 0.5% sodium deoxycholate, 0.5 μM OA, protease and phosphatase inhibitors), immunoprecipitated overnight at 4°C with anti-HA antibody coupled magnetic beads, washed 5 times; Western blot for endogenous ZO-1, occludin, Par3, aPKCζ; cells transfected with WTC, L309Δ or empty vector
[3] = target: HA-tagged L309Δ PP2Ac mutant (UniProt P67775); experiment: as above

Molecule | binding [1] | binding [2] | binding [3]
HA-tagged L309Δ PP2Ac mutant (from UniProt P67775 1-309) (enzyme) | no binding |  | 
HA-tagged PP2Ac (protein phosphatase 2A catalytic C subunit, wild type) (from UniProt P67775 1-309) (enzyme) | binds |  | 
ZO-1 (zonula occludens protein 1) (from UniProt O97758 1-1769) |  | binds | no binding
occludin (protein, UniProt Q28269 1-521) MSSRPFESPPPYRPDEFKPNHYAPSNDVYGGDMHVRPMLSQPAYSFYPEDEILHFYKWTSPPGVIRILSMLVIVMCIAIFGCVASTLAWDRGYGTGLMGGSIGYPYGSGFGSYGTGYGYGFGYGYGYGGYTDPRAAKGFLLAMVAFCFIAALVIFVTSVIRSDISRTRRYYLTVIILSAFLGVMMFIATIVYIMGVNPTAQASGSLYSSQIYAMCNQFYASTATGLYMDQYLYHYCVVDPQEAIAIVLGFMVIVAFALIIFFAVKTRRKMDRYDKSNILWDKEHIYDEQPPNVEEWVKNVSAGTQDMPPPPSDYVERVDSPMAYSSNGKVNDKRLYPESSYKSTPVPEVVQELPATSPADDFRQPRYSSSGHLEPPSKRAPSKGRTGRPKRLEQDHYETDYTTGGESCDELEEDWIREYPPITSDQQRQLYKRNFDTGLQEYKSLQAELDEINKELSRLDKELDDYREESEEYMAAADEYNRLKQVKGSPDYKNKRNYCKQLKSKLSHIKKMVGDYDRQKT |  | binds | no binding
